According to the antibiotic and cytotoxicity screens of Wong et al. (2023):
This is one part of the list.

Legend:
[1] = tested on: HSkMC (human skeletal muscle cells); assay: cytotoxicity call (relative viability < 0.9); details: 10 µM
[2] = tested on: HepG2; assay: cytotoxicity call (relative viability < 0.9); details: 10 µM
[3] = tested on: S. aureus RN4220; assay: growth inhibition call (relative growth <= 0.2); details: 50 µM

Compound | cytotoxicity call [1] | cytotoxicity call [2] | growth inhibition call [3]
C[C@H]1CCCCO[C@H](CN(C)Cc2ccncc2)[C@@H](C)CN([C@@H](C)CO)C(=O)c2cc(NS(=O)(=O)c3ccc(Cl)cc3)ccc2O1 | inactive | inactive | inactive
Oc1cc2c(cc1O)C1c3ccc(O)c(O)c3OCC1(O)C2 (centres undefined) | inactive | inactive | inactive
COC(=O)C[C@H]1CC[C@H]2[C@@H](COC[C@H](O)CN2S(=O)(=O)c2ccc(F)cc2)O1 | inactive | inactive | inactive
C[C@@H]1CN([C@@H](C)CO)C(=O)c2cc(NC(=O)Nc3ccc(C(F)(F)F)cc3)ccc2O[C@@H]1CN(C)C(=O)NC1CCCCC1 | inactive | active | inactive
COc1ccc(S(=O)(=O)Nc2ccc3c(c2)C(=O)N([C@@H](C)CO)C[C@@H](C)[C@@H](CN(C)C(=O)NC2CCCCC2)OCCCC[C@H](C)O3)cc1 | inactive | inactive | inactive
CCn1cc(-c2ccnc3[nH]c(-c4cccc(CN(C)C)c4)cc23)c(-c2ccc(NC(=O)N(C)C)cc2)n1 | active | active | inactive
C[C@H](CO)N1C[C@H](C)[C@H](CN(C)CC2CCCCC2)Oc2ccc(NC(=O)Cc3cn(C)c4ccccc34)cc2CC1=O | inactive | inactive | inactive
COc1ccc(NC(=O)Nc2ccc3c(c2)C(=O)N([C@@H](C)CO)C[C@@H](C)[C@@H](CN(C)C(=O)Nc2ccccc2)OCCCC[C@@H](C)O3)cc1 | inactive | inactive | inactive
COc1ccc(S(=O)(=O)N(C)C[C@H]2Oc3ccc(NC(=O)C4CC4)cc3C(=O)N([C@H](C)CO)C[C@H]2C)cc1 | inactive | inactive | inactive
Cc1noc(C)c1NC(=O)N(C)C[C@H]1Oc2ccc(NC(=O)C3CC3)cc2C(=O)N([C@@H](C)CO)C[C@@H]1C | inactive | inactive | inactive
C[C@@H]1CCCCO[C@@H](CN(C)C(=O)Nc2ccc(F)cc2)[C@@H](C)CN([C@H](C)CO)C(=O)c2cc(NS(=O)(=O)c3ccc(Cl)cc3)ccc2O1 | inactive | inactive | inactive
C[C@@H]1C[C@H]1C(=O)O | inactive | inactive | inactive
CN1CCN(C(=O)C[C@@H]2CC[C@H]3[C@@H](COC[C@@H](O)CN3C(=O)C3CCCC3)O2)CC1 | inactive | inactive | inactive
C[C@@H]1CN([C@@H](C)CO)C(=O)c2cc(C#Cc3cccc(F)c3)cnc2O[C@@H]1CN(C)CC1CCOCC1 | inactive | inactive | inactive
COc1ccc([Si](C)(C)[C@@H]2[C@@H](CCn3cc([C@H](O)c4ccccc4)nn3)O[C@]3(C(=O)N(Cc4ccc(N5CCOC5=O)cc4)c4ccccc43)[C@H]2C)cc1 | inactive | inactive | inactive
Cc1ccc(S(=O)(=O)N(C)C[C@@H]2Oc3c(NS(C)(=O)=O)cccc3C(=O)N([C@H](C)CO)C[C@H]2C)cc1 | inactive | inactive | inactive
CC(=O)N(C)C[C@H]1Oc2ncc(C#C[C@@H](C)O)cc2C(=O)N([C@H](C)CO)C[C@H]1C | inactive | inactive | inactive
CC(N)O.Cc1cc(CC(C)CC(C)(C)C)n(O)c(=O)c1 (centres undefined) | inactive | active | active
COc1ccc(NC(=O)Nc2ccc3c(c2)CC(=O)N([C@H](C)CO)C[C@@H](C)[C@@H](CN(C)S(C)(=O)=O)O3)cc1 | inactive | inactive | inactive
C[C@@H]1CN([C@@H](C)CO)C(=O)c2cc(-c3ccc(C#N)cc3)cnc2O[C@@H]1CN(C)C(=O)Nc1ccc(C(F)(F)F)cc1 | inactive | inactive | inactive
Cc1ccc(S(=O)(=O)Nc2ccc3c(c2)C(=O)N([C@@H](C)CO)C[C@@H](C)[C@@H](CN(C)C(=O)Nc2ccc(C(F)(F)F)cc2)OCCCC[C@@H](C)O3)cc1 | inactive | inactive | inactive
N#CC(c1ccccc1)(c1ccccc1)c1ccccc1Cl | inactive | inactive | inactive
C[C@H]1CN([C@@H](C)CO)C(=O)Cc2cc(NS(=O)(=O)c3ccc(F)cc3)ccc2O[C@H]1CN(C)S(=O)(=O)c1cccs1 | inactive | inactive | inactive
Cc1noc(C)c1NC(=O)Nc1cccc2c1O[C@H](CN(C)C(=O)NC(C)C)[C@@H](C)CN([C@@H](C)CO)C2=O | inactive | inactive | inactive
C[C@@H]1CN([C@@H](C)CO)C(=O)c2cc(NC(=O)Nc3cccc4ccccc34)ccc2O[C@@H]1CN(C)C(=O)Nc1ccc(F)cc1 | inactive | inactive | inactive
C=CCN1C(=O)[C@@]2(O[C@@H](CCn3cc([C@H](O)c4ccccc4)nn3)[C@H]([Si](C)(C)c3ccc(OC)cc3)[C@H]2C)c2cc(N3C(=O)c4cccc5cccc3c45)ccc21 | inactive | inactive | inactive
COC[C@@H]1c2nnn(C)c2CCN1S(=O)(=O)c1cn(C)cn1 | inactive | inactive | inactive
NC(=O)N1c2ccccc2CC(=O)c2ccccc21 | inactive | inactive | inactive
